Test results published in US20160067272A1, “METHODS FOR TREATING IMMUNE DISEASES” (priority 2013, published 2016).

System: tryptophan hydroxylase-1 (Tph-1) and carboxypeptidase A3 (CA3)
Experiment: Gene expression in CD4+ T cells (microarray, qPCR)
Type: cell-based, mouse
Details: Th0, Th1, Th2 and iTreg polarizing conditions, 96 hrs, with vs without NAD+
From the text: After successive washes, RNA was eluted.

## NC(=O)c1ccc[n+]([C@@H]2O[C@H](COP(=O)([O-])OP(=O)(O)OC[C@H]3O[C@@H](n4cnc5c(N)ncnc54)[C@H](O)[C@@H]3O)[C@@H](O)[C@H]2O)c1 [NAD+, nicotinamide adenine dinucleotide]
  Tph-1 gene expression (microarray): increased
